Assay results published in PubChem BioAssay AID1745853 (National Center for Advancing Translational Sciences (NCATS), 2022).
This is one part of the list. Further columns of the screen follow, without active or inactive calls.

Key:
Test in all cases: Primary Screen for Target Class Profiling of Small Molecule Inhibitors of Methyltransferases
[1] = target: Glycine N-methyltransferase (Homo sapiens) (UniProt Q14749); settings: purified enzyme, MTase-Glo SAH luminescence; measured here: GNMT inhibition; at 40 µM; stronger effect = lower value
In short: (§1)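 Each enzyme was reacted with SAM and its substrate, with compounds tested once at 40 uM; SAH formed was read by MTase-Glo luminescence.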

[2] = target: Guanidinoacetate N-methyltransferase (Homo sapiens) (UniProt Q14353); settings: purified enzyme, MTase-Glo SAH luminescence; measured here: GAMT inhibition; at 40 µM; stronger effect = lower value
In short: as §1

[3] = target: Histamine N-methyltransferase (Homo sapiens) (UniProt P50135); settings: purified enzyme, MTase-Glo SAH luminescence; measured here: HNMT inhibition; at 40 µM; stronger effect = lower value
In short: as §1

[4] = target: Nicotinamide N-methyltransferase (Homo sapiens) (UniProt P40261); settings: purified enzyme, MTase-Glo SAH luminescence; measured here: NNMT inhibition; at 40 µM; stronger effect = lower value
In short: as §1

[5] = target: Phenylethanolamine N-methyltransferase (Homo sapiens) (UniProt P11086); settings: purified enzyme, MTase-Glo SAH luminescence; measured here: PNMT inhibition; at 40 µM; stronger effect = lower value
In short: as §1
% is set by controls: 0 for no effect and ±100 for the full control effect.

| Structure (SMILES) | activity change, negative = inhibition [1] | activity change, negative = inhibition [2] | activity change, negative = inhibition [3] | activity change, negative = inhibition [4] | activity change, negative = inhibition [5] |
| --- | --- | --- | --- | --- | --- |
| CC(C)(C)c1cc2n(n1)CC(C)(C(=O)NC1CCCCCC1)N(Cc1ccc(F)cc1)C2=O (stereo not given) | 1.75% | 0% | -0.09% | -1.94% | 0.574% |
| CCc1ccc(CNC(=O)Cn2c(C)cc3nc4n(c(=O)c32)CCCC4)cc1 | -1.53% | 0.694% | 2.43% | 0.378% | -8.35% |
| C=CCCC(CN1CCOCC1)Oc1ccc(-c2ccccc2)nn1 (stereo not given) | -1.17% | -1.42% | 1.49% | -2.57% | 0.077% |
| CC1(C(=O)NC2CCCCC2)Cn2c(cc3sccc32)C(=O)N1CCc1ccccc1 (stereo not given) | -5.87% | 2.14% | -5.11% | -6.46% | -2.21% |
| OC[C@H]1O[C@@H](n2cnc3cncnc32)[C@H](O)[C@@H]1O | -83.9% | -80.6% | -80.2% | -75.1% | -85.8% |
| CCCn1c(=O)c2cc(Cl)ccc2n2c(=O)n(CC(=O)c3ccc(OCC)cc3)nc12 | 6.33% | 0.561% | 4.13% | 8.65% | 5% |
| Cc1cccc(Cn2nc3n(CCC(C)C)c(=O)c4ccc(C(=O)NCC(C)C)cc4n3c2=O)c1 | 7.01% | 0% | 7.32% | 2.15% | 6.34% |
| O=C(Nc1ncc(-c2cc(C(F)F)nn2-c2c(Cl)cccc2Cl)s1)C1CC1 | -5.29% | 5.73% | 2.12% | -34.3% | 1.99% |
| CCN(CC)C(=O)N1CCC(c2noc(-c3ccccc3)n2)C1 (stereo not given) | -5.37% | -8.88% | -4.04% | -17.4% | 10.4% |
| CC(=O)NC1CCN(Cc2cn(-c3ccc(C)cc3)nc2-c2cccc(C)c2)C1 (stereo not given) | -9.57% | -7.56% | -5.25% | -11.5% | -7.42% |
| Cc1noc([C@@H]2C[C@H](NC(=O)C3CCCCC3)CN2C)n1 | -3.04% | -6.82% | -1.44% | -5.43% | 4.04% |
| O=C(Cn1ccc2cc(S(=O)(=O)N3CCCCC3)ccc21)NCc1ccccc1 | -0.602% | 0% | 0.339% | -3.65% | 0.435% |
| CC(=O)C(C)=O | -3.66% | 5.13% | 1.7% | -3.31% | 12.9% |
| COc1ccc(C(=O)Nc2ccc3c(c2)C(=O)N(C)C2=NCCN23)cc1OC | -21.3% | -4.62% | 0.864% | -10.1% | -6.5% |
| Cc1ncc2n1C(=O)N(C1CCN(Cc3ccncc3)CC1)C2 | -6.62% | -7.24% | -4.28% | -13.9% | -8.12% |
| CCCn1c(=O)c2ccccc2n2c(SCc3ccccc3C)nnc12 | -14.5% | 0% | 9.17% | -6.8% | 6.86% |
| COc1ccc(N2CCN(c3nc(C(=O)NCc4cccc(C)c4)cs3)CC2)cc1 | -9.4% | -9.27% | -7.77% | -13.3% | -7.54% |
| CCN1C(=O)c2cc(C(=O)NCc3cccc(OC)c3)nn2CC1(C)C(=O)NC1CCCC1 (stereo not given) | 2.07% | 3.34% | -4.25% | 1.21% | 0.411% |
| CCCn1c(=O)c2ccc(Cl)cc2n2c(=O)n(CC(=O)c3ccc(OC)c(OC)c3)nc12 | 3.57% | 0.065% | 13% | 10.9% | 5.65% |

| Structure (SMILES) | activity change, negative = inhibition [1] | activity change, negative = inhibition [2] | activity change, negative = inhibition [3] | activity change, negative = inhibition [4] | activity change, negative = inhibition [5] |
| --- | --- | --- | --- | --- | --- |
| COc1ccc(CNC(=O)c2cc(-c3cncc(C)c3)ncc2-c2nccs2)nc1OC | -15.8% | 0.036% | 3.82% | -19.5% | -0.995% |
| COC1CCC12CCN(Cc1ccc(C)s1)CC2 (stereo not given) | -0.386% | 0.405% | 1.44% | 0.185% | -0.636% |
| CC1(C)Oc2ncnc(N)c2N=C1c1ccc(C23CCC(CC(=O)O)(CC2)CC3)cc1 | -36.5% | -17.9% | -2.15% | -33.3% | -3.66% |
| CCCN1C(=O)c2c(C(=O)NCc3ccc(OC)cc3OC)ncn2CC1(C)C(=O)NCc1ccc(F)cc1 (stereo not given) | 1.12% | 0.565% | 3.81% | -3.15% | 7.2% |
| CNC(=O)O[C@H]1COc2ccc(N3CCN(C4COC4)CC3)cc2[C@@H]1NC(=O)c1ccc(F)cc1 | -7.32% | -7.86% | 0.031% | -17.7% | -3.22% |
| O=C1c2c(-c3nc(-c4ccsc4)no3)nnn2CCN1Cc1cccc(Cl)c1 | -5.35% | 0.256% | -3.5% | -0.547% | -0.553% |
| CC(C)=C[C@@H]1[C@H](CO[C@@H]2O[C@H](CO)[C@@H](O)[C@H](O)[C@H]2O)C1(C)C | 3.57% | -3.14% | 8.57% | -8.49% | -0.018% |
| Cc1cc2c(cc3n2CC(C)(C(=O)NC2CCCCCCC2)N(Cc2ccccc2C)C3=O)o1 (stereo not given) | -2.8% | 1.78% | -2.25% | 2.9% | -3.09% |
| CN(C)[C@@H]1CO[C@H](CNC(=O)N2CCOCC2)[C@H]1O | -0.322% | 0.836% | 3.57% | 1.94% | 12.8% |
| COc1ccc(CNC(=O)c2ccc3nnc(C4CCOCC4)n3c2)cc1 | 6.83% | -0.895% | -2.1% | -0.068% | -0.162% |
| C[C@@H]1O[C@@H](O[C@H]2[C@H](O)[C@@H](O)[C@H](OC[C@H]3O[C@@H](OC(=O)[C@]45CCC(C)(C)C[C@H]4C4=CCC6[C@@]7(C)C[C@@H](O)[C@H](O)[C@@](C)(CO)C7[C@H](O)C[C@@]6(C)[C@]4(C)CC5)[C@H](O)[C@@H](O)[C@@H]3O)O[C@@H]2CO)[C@H](O)[C@H](O)[C@H]1O (stereo not given in full) | -0.296% | 0.698% | 2.41% | -13.4% | 4.33% |
| COc1ccc(NC(=O)C(C)(C)Oc2nn(CC3CC3)c3ccc(CN4CCCC4)cc23)cc1 | -3.49% | -0.524% | -79.5% | -4.57% | -1.82% |
| COc1ccc2cc3n(c2c1)CC(C)(C(=O)NC1CCCC1)N(CCc1cccs1)C3=O (stereo not given) | -5.58% | 4.05% | -0.591% | -2.62% | -6.03% |
| Cc1ccc(NC(=O)Cn2nc3n(CCCOC(C)C)c(=O)c4ccccc4n3c2=O)c(Cl)c1 | 3.31% | 0.026% | 3.2% | 2.05% | 3.9% |
| Cn1cc(-c2ccc3nnc(C(F)(F)c4ccc5ncccc5c4)n3n2)cn1 | -21.9% | -14.9% | -21.5% | -26.9% | -20.7% |
| c1ccc(OCc2noc(-c3ccc(NC4CCSC4)nc3)n2)cc1 (stereo not given) | -5.43% | -5.55% | -8.72% | -6.5% | -4.68% |
| C=C[C@H]1[C@H](O[C@@H]2O[C@H](CO)[C@@H](O)[C@H](O)[C@H]2O)OC=C2C(=O)N3Cc4c([nH]c5ccccc5c4=O)[C@@H]3C[C@H]21 | -0.895% | -1.83% | 6.72% | -11.6% | -7.77% |
| CC1OC(O[C@@H]2[C@H](O)[C@@H](OC3OC(CO)C(O)C(O)C3O)[C@H](OC(=O)[C@]34CCC(C)(C)C[C@H]3C3=CCC5[C@@]6(C)CC[C@H](O[C@@H]7O[C@H](C(=O)O)[C@@H](O)[C@H](O[C@@H]8OC[C@@H](O)[C@H](O)[C@H]8O)[C@H]7O[C@@H]7O[C@H](CO)[C@H](O)[C@H](O)[C@H]7O)[C@@](C)(C=O)C6CC[C@@]5(C)[C@]3(C)C[C@H]4O)O[C@@H]2C)C(O)C(O)C1OC1OCC(O)C(O)C1O (stereo not given in full) | 0% | 3.21% | 8.39% | -7.82% | 1.63% |
| CCN1CCn2c3c(c4cc(C)ccc42)CCCC31 (stereo not given) | -0.247% | 0% | 0.495% | 12% | -4.47% |

| Structure (SMILES) | activity change, negative = inhibition [1] | activity change, negative = inhibition [2] | activity change, negative = inhibition [3] | activity change, negative = inhibition [4] | activity change, negative = inhibition [5] |
| --- | --- | --- | --- | --- | --- |
| COCCC1(NS(C)(=O)=O)CCN(S(=O)(=O)c2cc(OC)ccc2OC)CC1 | -0.148% | 3.85% | 13.9% | 6.04% | 5.78% |
| CN1[C@@H](CC(=O)c2ccccc2)CCC[C@H]1C[C@H](O)c1ccccc1 | -0.967% | 7.86% | -0.301% | -1.53% | 8.31% |
| CC(C)Cn1c(=O)c2ccc(C(=O)NC3CCCC3)cc2n2c(SCC(N)=O)nnc12 | 1.35% | 0% | 5.31% | 4.57% | 1.16% |
| CC(C)CCn1c(=O)c2ccccc2n2c(=O)n(Cc3ccc(F)cc3Cl)nc12 | -0.087% | 0% | 0.145% | -6.77% | -0.582% |
| COc1ccc2cc3n(c2c1)CC(C)(C(=O)NC1CCCCCC1)N(Cc1ccco1)C3=O (stereo not given) | 3.18% | 0.812% | 8.78% | -9.82% | -1.34% |
| CCN(CC)C(=O)[C@@H]1CCC[C@@H](NC(=O)c2ccc(OC)cc2)CN(C)C(=O)C1 | -6.55% | -12.3% | -3.84% | -10.5% | -9.94% |
| CCc1ccc(CN2C(=O)c3cc(C(=O)OC)nn3CC2(C)C(=O)NC2CCCCC2)cc1 (stereo not given) | 1.14% | 0.186% | 5.16% | 1.15% | 2.88% |
| O=C(Cn1nc2n(Cc3ccc(F)cc3)c(=O)c3ccccc3n2c1=O)Nc1ccc(F)cc1 | -0.649% | -4.14% | 4.42% | -8.99% | -1.93% |
| Cc1nc2ncccn2c1C(=O)N1CCC2(CCCN(C)C2=O)C1 (stereo not given) | -0.982% | -4.84% | 0.105% | -3.65% | -5.34% |
| CCC(CC)CC1(C(=O)Nc2ccccc2SC(=O)C(C)C)CCCCC1 | -5.21% | -11.7% | -2.42% | -28.9% | -8.72% |
| O=C(Cn1ccc2cc(S(=O)(=O)N3CCCCC3)ccc21)NCCCN1CCOCC1 | 6.88% | 2.85% | -3.24% | 4.12% | 2.69% |
| CCCn1c(=O)c2ccc(C(=O)NCC(C)C)cc2n2c(=O)n(Cc3c(F)cccc3Cl)nc12 | -1.45% | 0.941% | -0.154% | 2.44% | 1.7% |
| CCc1ccc(N2C(=O)c3cc4ccc(OC)cc4n3CC2(C)C(=O)NC2CCCC2)cc1 (stereo not given) | 1.26% | 1.53% | 1.99% | -2.21% | -5.02% |
| CCC(C)NC(=O)Cn1nc2n(CC(C)C)c(=O)c3ccc(C(=O)NC4CCCCC4)cc3n2c1=O (stereo not given) | 0.624% | 4.83% | -0.005% | -1.34% | -0.101% |
| O=C(CCc1cc2n(n1)CCCN(C(=O)CCc1ccsc1)C2)NC1CC1 | -6.08% | -9.6% | -7% | -13.9% | -12.2% |
| CCOC(=O)c1cc2n(n1)CC(C)(C(=O)NCCC(C)C)N(c1ccc(OCC)cc1)C2=O (stereo not given) | 1.74% | 0% | 2.77% | 7.11% | -0.819% |
| CCN(CCCNC(=O)CCc1nnc2n(Cc3ccc(C)cc3)c(=O)c3ccccc3n12)c1cccc(C)c1 | -7.66% | 1.52% | -14.2% | -3.62% | -13.5% |
| CCC(C)NC(=O)c1ccc2c(=O)n(C)c3nnc(SCc4cccc(C)c4)n3c2c1 (stereo not given) | 5.35% | 0% | 3.92% | 0.219% | 6.15% |
